# Measurements as given in the supplement of paper PMC4166925.
# ± gives the standard deviation of the averaged measurements. Whole data set: some 33,000 sequences, median “E-score (dimensionless, -0.5 to 0.5)” near -0.049, cut for the highest 2% near 0.37. The list shows a part of the results.
# Tested on: T1, PmTbr T-box DNA-binding domain (GST fusion)
# T1 sequence: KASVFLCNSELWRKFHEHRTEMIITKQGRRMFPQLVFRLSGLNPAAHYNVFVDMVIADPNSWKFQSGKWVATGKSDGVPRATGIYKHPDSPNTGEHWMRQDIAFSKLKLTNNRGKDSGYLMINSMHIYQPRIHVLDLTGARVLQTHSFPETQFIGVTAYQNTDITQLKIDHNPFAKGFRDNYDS
# Assay: PBM E-score of 8-mer (E-score (dimensionless, -0.5 to 0.5)); Tbr is Tbrain of the sea star Patiria miniata (Pm) or the sea urchin Strongylocentrotus purpuratus (Sp); higher = stronger binding preference; most listed sequences are background and not binding sites
# Conditions: the construct has about 5 more residues each side
# Summary of the method: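 Using the Universal PBM Analysis Suite, every ungapped 8-mer received an enrichment E-score averaged over duplicate arrays. Probe intensities came from double-stranded Universal Agilent oligonucleotide arrays incubated with 200 nM GST-fused Tbr T-box DNA-binding domain in PBS (pH 7.5). That protein was expressed in BL21 E. coli at 20 °C and purified by glutathione affinity chromatography.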
row,Sequence,PBM E-score of 8-mer
1,CAGACAGA,-0.0984 ± 0.023
2,GGTACGAC,-0.0493 ± 0.042
3,CACTCCGC,0.0683 ± 0.039
4,GCACTCCA,0.124 ± 0.03
5,ACTTTCAG,0.0962 ± 0.033
6,GCCGAGAC,-0.197 ± 0.011
7,CATATCTC,0.0249 ± 0.039
8,AAGTACGT,-0.0204 ± 0.035
9,CGGGATCA,-0.0485 ± 0.045
10,ATCGCTTG,-0.145 ± 0.086
11,AGCCCAAT,-0.213 ± 0.048
12,GTCGGCAC,0.1802 ± 0.00045
13,ACGAATGC,0.0243 ± 0.00054
14,CCACTGGG,-0.0864 ± 0.036
15,CCTTTGTA,0.0138 ± 0.0078
16,AGGCAATC,-0.27 ± 0.097
17,ACTTTTCA,0.211 ± 0.055
18,AGCACACG,-0.0163 ± 0.042
19,AAAATAAC,0.141 ± 0.037
20,CACGTGAA,0.176 ± 0.044
21,CGGACATC,-0.286 ± 0.039
22,CGCCGAAA,-0.0346 ± 0.031
23,TATGGAAA,-0.0651 ± 0.021
24,CAGGGTAA,-0.223 ± 0.0064
25,CCTACTAG,0.0677 ± 0.014

row,Sequence,PBM E-score of 8-mer
1,CAGGATCA,-0.0925 ± 0.02
2,CGCGGACC,0.0878 ± 0.041
3,AGTGGATC,-0.236 ± 0.0081
4,ATATGGCG,-0.0702 ± 0.039
5,GGTCAAGA,-0.151 ± 0.057
6,AACATTCG,-0.197 ± 0.0051
7,AATTACCG,0.0948 ± 0.036
8,GTTCAGAA,-0.0736 ± 0.1
9,ACAGACCC,0.0984 ± 0.0065
10,TACCTGAA,-0.0946 ± 0.0015
11,AACAAGAA,-0.105 ± 0.079
12,AGTGGATG,-0.1874 ± 0.00053
13,AAAGCCCG,-0.0284 ± 0.041
14,CTGCGCGC,0.0692 ± 0.036
15,GTATTACA,-0.0394 ± 0.027
16,AACTATCA,0.136 ± 0.026
17,CGGTGCCA,0.195 ± 0.0034
18,ACGGCCTA,-0.231 ± 0.014
19,AAAGGTGG,0.234 ± 0.084
20,TCCGCGCA,-0.0129 ± 0.15
21,AGATGGCA,0.162 ± 0.057
22,ACCTGAGC,-0.0282 ± 0.035
23,ACGATTAA,-0.0817 ± 0.013
24,ACTCAGAT,-0.0293 ± 0.074
25,TCTATTCA,0.0759 ± 0.049

row,Sequence,PBM E-score of 8-mer
1,AGCGGTCA,-0.145 ± 0.11
2,GGCTGACA,0.26929 ± 0.00013
3,CATTCGGC,-0.0828 ± 0.042
4,CGTACATA,-0.0161 ± 0.02
5,ACGAGAGG,0.0873 ± 0.05
6,TACTTCTA,-0.14 ± 0.025
7,AATACAGA,0.033 ± 0.0049
8,ACCCGACT,0.0457 ± 0.056
9,GCGAATCC,0.294 ± 0.021
10,AAGCCGAG,-0.0365 ± 0.014
11,GACGCGAC,0.207 ± 0.015
12,GTTTTGTA,-0.159 ± 0.056
13,CTCCCTTC,-0.181 ± 0.14
14,CTCTTGAC,0.168 ± 0.027
15,AACGGGTC,0.0374 ± 0.029
16,AGCAAGAT,0.0164 ± 0.08
17,AAGAGGCC,-0.234 ± 0.0038
18,AGCGCCCT,0.101 ± 0.026
19,GTTCGTGA,0.0809 ± 0.031
20,AGTACGTA,-0.0277 ± 0.038
21,CAAAGTGG,0.0955 ± 0.052
22,GTGACCGA,0.0574 ± 0.029
23,GACCGACC,-0.0482 ± 0.1
24,GGTAGACC,-0.167 ± 0.028
25,ACGAAGCG,-0.0233 ± 0.14

row,Sequence,PBM E-score of 8-mer
1,CTTGCGCC,0.0975 ± 0.042
2,CAGGTCCA,-0.14 ± 0.0038
3,ATCGACGA,-0.0605 ± 0.13
4,CCGACTAC,-0.106 ± 0.024
5,CACCACTG,0.1882 ± 0.00029
6,CTAGTGAA,0.0741 ± 0.0051
7,ATCCCCAC,0.201 ± 0.017
8,CCAGGGAC,-0.11 ± 0.0013
9,ATGTCTTC,-0.0952 ± 0.012
10,ACCCAAAC,0.027 ± 0.033
11,GCCATTCA,0.104 ± 0.018
12,AGCTGCGA,0.292 ± 0.03
13,GCTGATGA,0.0826 ± 0.021
14,ATTCTTTG,-0.109 ± 0.048
15,ATTAAGGA,-0.159 ± 0.045
16,CTCTAATC,-0.29 ± 0.038
17,CACGAGTC,0.0955 ± 0.0089
18,GACCGGAC,0.0558 ± 0.0036
19,CAGCGGAG,0.0331 ± 0.067
20,ACCTTCGC,0.246 ± 0.045
21,CAACAGCA,0.168 ± 0.04
22,ATATTGAA,-0.172 ± 0.12
23,AATCATAG,-0.1427 ± 0.0014
24,CAAACGAG,-0.024 ± 0.024
25,CAGAACAC,0.0625 ± 0.017

row,Sequence,PBM E-score of 8-mer
1,TAACTCTA,-0.103 ± 0.051
2,GCGCTAGA,0.209 ± 0.016
3,TCGCTAGA,0.152 ± 0.02
4,TGGCTTAA,-0.353 ± 0.045
5,AAGGTTCA,0.0379 ± 0.076
6,AGCACAGC,-0.137 ± 0.0099
7,AAGAGTAT,-0.0661 ± 0.0086
8,AGGCCGAC,-0.0587 ± 0.016
9,TTGGCCAA,-0.108 ± 0.023
10,CAAATCCC,0.0413 ± 0.012
11,CACAAGAC,0.0761 ± 0.055
12,AACAGGCT,-0.165 ± 0.019
13,CATATCCA,0.0671 ± 0.023
14,CTGTCCGA,-0.253 ± 0.02
15,ATGGATCA,-0.268 ± 0.042
16,CCTGTGGC,-0.074 ± 0.037
17,AAGCCTGG,-0.135 ± 0.045
18,AGTTTTAA,0.0281 ± 0.082
19,AGGCTACG,-0.194 ± 0.0097
20,GCGCGAAA,0.4397 ± 0.0003
21,ACCGAACG,-0.000335 ± 0.0076
22,GCTCCCTA,-0.225 ± 0.056
23,CCTAAACG,0.0736 ± 0.0031
24,GCTCGGAA,-0.22 ± 0.021
25,GTAAAAAC,0.022 ± 0.068

row,Sequence,PBM E-score of 8-mer
1,AGCTGTGG,0.0136 ± 0.075
2,CTGTTTGA,-0.144 ± 0.048
3,CGCTGTTC,-0.0409 ± 0.011
4,GACTTCGC,0.121 ± 0.0073
5,CCCTAGAC,-0.152 ± 0.00088
6,AGTCCCTG,-0.158 ± 0.023
7,AATGTAGG,-0.228 ± 0.0062
8,CTAATCCA,-0.0637 ± 0.017
9,GAACTATC,-0.095 ± 0.022
10,CAGAACCG,-0.0987 ± 0.021
11,TAGCCCAA,-0.2 ± 0.0096
12,CAACAAAC,0.0469 ± 0.022
13,GTGCACAC,0.19 ± 0.017
14,ACACTCTG,0.2899 ± 0.00065
15,ATAGCGCG,0.268 ± 0.017
16,CCGCCACC,0.233 ± 0.076
17,ACTCTGCG,0.0927 ± 0.034
18,GCTTCTCC,-0.24 ± 0.009
19,TTCGCCAA,0.115 ± 0.016
20,CTGGTACC,-0.0542 ± 0.023
21,CGTCAATA,0.1 ± 0.028
22,ATGCGGAC,-0.203 ± 0.02
23,ACAGTGAC,0.187 ± 0.034
24,CATCGGCG,0.109 ± 0.004
25,ATTTGGCG,0.221 ± 0.042

row,Sequence,PBM E-score of 8-mer
1,AGACTCGA,-0.141 ± 0.058
2,GGTACCAC,0.106 ± 0.022
3,ATAGTACC,-0.0148 ± 0.0029
4,GCATAAGA,-0.195 ± 0.018
5,CTCTGGAC,-0.173 ± 0.042
6,CTCGGCTA,0.0919 ± 0.061
7,AATACCAC,0.163 ± 0.0061
8,ATTGCCAG,0.132 ± 0.016
9,AGCACTGC,0.0402 ± 0.02
10,AAGTCAGC,-0.141 ± 0.014
11,ACTGTCCT,-0.205 ± 0.061
12,AATTTCGG,0.0486 ± 0.022
13,AAATTTTG,-0.103 ± 0.082
14,CAGAGCGG,-0.254 ± 0.057
15,CCTGCCTA,-0.173 ± 0.05
16,AGTTGTTG,0.195 ± 0.0086
17,ATATACTA,0.14 ± 0.055
18,CCCGTGTA,-0.229 ± 0.036
19,TCAGTCGA,-0.0383 ± 0.035
20,CCTGAGAA,-0.177 ± 0.044
21,AAGAAACG,-0.191 ± 0.031
22,GGCTACCC,-0.236 ± 0.033
